*1 amine or outer side, *2 acyl side, *3 side chain or, on linkers, in order; H or OH if unused. Where a SMILES comes first, the peptide text is derived from it. [ ]: non-standard residue; d: D form. The star is where a group is joined. ξ: configuration not given here. ξ(3-Amino-2-oxopentanoyl) = CCC(N[*:1])C(=O)C(=O)[*:2]; ξLeu(ψCOCO) = CC(C)CC(N[*:1])C(=O)C(=O)[*:2]; X74 = O=C(c1ccccc1)[C@H]1CCCC[C@@H]1C(=O)*; X58 = O=C(O)c1c(F)c(F)c(F)c(C(=O)*)c1F; X70 = O=C(c1ccc(C(F)(F)F)cc1C(F)(F)F)*; X73 = O=C(O)c1c(F)c(F)c(C(=O)*)c(F)c1F; ξPhg(3-Cl) = NC(C(=O)O)c1cccc(Cl)c1; X4 = CCCCC(N[*:1])C(=O)C(=O)[*:2]; Hyp = O=C(O)[C@@H]1C[C@@H](O)CN1; X2 = CCCC(N[*:1])C(=O)C(=O)[*:2]; X61 = O=C(O)[C@@H]1CCCCC1C(=O)*; Aad = N[C@@H](CCCC(=O)O)C(=O)O; dPhg = N[C@@H](C(=O)O)c1ccccc1; X55 = O=C(c1ccccc1Oc1ccccc1)*; Chg = N[C@H](C(=O)O)C1CCCCC1; Phg = N[C@H](C(=O)O)c1ccccc1; X59 = NC(=O)c1ccccc1C(=O)*; X60 = CC(CC(=O)*)c1ccccc1; X66 = O=C(C1CC1c1ccccc1)*; ξChg = NC(C(=O)O)C1CCCCC1; ξPhg = NC(C(=O)O)c1ccccc1; Carboxymethyl = O=C(O)C*; X65 = CC1CCC(CC(=O)*)CC1; X64 = COc1ccccc1C(=O)*; ξNle = CCCCC(N)C(=O)O; X68 = CCCS(=O)(=O)*; Bn = c1ccc(C*)cc1; OtBu = CC(C)(C)O*; tBu = CC(C)(C)*; MEM = COCCOC*

The Ki is the dissociation constant of the complex between target and ligand, obtained from inhibition or displacement.

This assay addresses HCV NS3/NS4A protease (strain 1a) (Hepatitis C virus genotype 1a, UniProt P27958). Description: biochemical. Particulars: Compounds prepared by Solid Phase Synthesis, Table 3; read-out: Ki* CLASS.
With `CCCCC(NC(=O)[C@@H]1C[C@@H](OCc2ccccc2)CN1C(=O)C(NC(=O)c1ccccc1Oc1ccccc1)C1CCCCC1)C(=O)C(=O)NCC(=O)NC(C(N)=O)c1ccccc1` (stereo partly drawn) (X55-[ξChg][Hyp](Bn)[X4]G[ξPhg]-NH2), the Ki is > 1000 nM.

For the molecule `CCCC(NC(=O)[C@@H]1C[C@@H](OC(C)(C)C)CN1C(=O)[C@@H](NC(=O)c1c(F)c(F)c(F)c(C(=O)O)c1F)C1CCCCC1)C(=O)C(=O)NCC(=O)NC(C(N)=O)c1cccc(Cl)c1` (stereo partly drawn) (X58-[Chg][Hyp](tBu)[X2]G[ξPhg(3-Cl)]-NH2), the Ki lay in the range of 101 to 1000 nM.

Turning to `CC(C)CC(NC(=O)[C@@H]1C[C@@H](OC(C)(C)C)CN1C(=O)[C@@H](NC(=O)c1c(F)c(F)c(F)c(C(=O)O)c1F)C1CCCCC1)C(=O)C(=O)NCC(=O)N[C@H](C(N)=O)c1ccccc1` (stereo partly drawn) (X58-[Chg][Hyp](tBu)[ξLeu(ψCOCO)]G[Phg]-NH2), the Ki is > 1000 nM.

Take `CCCC(NC(=O)[C@@H]1C[C@@H](OCc2ccccc2)CN1C(=O)[C@H](CCCC(=O)OC(C)(C)C)NC(=O)c1ccccc1C(N)=O)C(=O)C(=O)NCC(=O)N[C@H](C(N)=O)c1ccccc1` (stereo partly drawn) (X59-[Aad](OtBu)[Hyp](Bn)[X2]G[Phg]-NH2): the Ki was > 1000 nM.

In the case of `CCCC(NC(=O)[C@@H]1C[C@@H](OCc2ccccc2)CN1C(=O)[C@H](CCCC(=O)O)NC(=O)c1ccccc1C(N)=O)C(=O)C(=O)NCC(=O)N[C@H](C(N)=O)c1ccccc1` (stereo partly drawn) (X59-[Aad][Hyp](Bn)[X2]G[Phg]-NH2), the Ki lay within 101 to 1000 nM.

`CCCC(NC(=O)[C@@H]1C[C@@H](OC(C)(C)C)CN1C(=O)[C@@H](NC(=O)c1ccccc1C(N)=O)C1CCCCC1)C(=O)C(=O)NCC(=O)N[C@H](C(N)=O)c1ccccc1` (stereo partly drawn) (X59-[Chg][Hyp](tBu)[X2]G[Phg]-NH2): the Ki is 101 to 1000 nM.

For `CCC(NC(=O)[C@@H]1C[C@@H](OC(C)(C)C)CN1C(=O)[C@@H](NC(=O)c1ccccc1C(N)=O)C1CCCCC1)C(=O)C(=O)NCC(=O)N[C@H](C(N)=O)c1ccccc1` (stereo partly drawn) (X59-[Chg][Hyp](tBu)[ξ(3-Amino-2-oxopentanoyl)]G[Phg]-NH2), the Ki fell in the range of 101 to 1000 nM.

As for `CCCC(NC(=O)[C@@H]1C[C@@H](OCc2ccccc2)CN1C(=O)C(NC(=O)c1ccccc1C(N)=O)C1CCCCC1)C(=O)C(=O)NCC(=O)N[C@@H](C(N)=O)c1ccccc1` (stereo partly drawn) (X59-[ξChg][Hyp](Bn)[X2]G[dPhg]-NH2), the Ki was > 1000 nM.

For the molecule `CCCCC(NC(=O)CNC(=O)C(=O)C(CCC)NC(=O)[C@@H]1C[C@@H](OCc2ccccc2)CN1C(=O)C(NC(=O)CC(C)c1ccccc1)C1CCCCC1)C(N)=O` (stereo partly drawn) (X60-[ξChg][Hyp](Bn)[X2]G[ξNle]-NH2), the Ki was > 1000 nM.

Take `CCCCC(NC(=O)CNC(=O)C(=O)C(CCC)NC(=O)[C@@H]1C[C@@H](OCOCCOC)CN1C(=O)C(NC(=O)C1CCCC[C@H]1C(=O)O)C1CCCCC1)C(N)=O` (stereo partly drawn) (X61-[ξChg][Hyp](MEM)[X2]G[ξNle]-NH2): the Ki lay within 101 to 1000 nM.

On to `CCCCC(NC(=O)[C@@H]1C[C@@H](OCc2ccccc2)CN1C(=O)C(NC(=O)c1ccccc1OC)C1CCCCC1)C(=O)C(=O)NCC(=O)NC(C(N)=O)c1ccccc1` (stereo partly drawn) (X64-[ξChg][Hyp](Bn)[X4]G[ξPhg]-NH2), for which the Ki is > 1000 nM.

Turning to `CCCCC(NC(=O)CNC(=O)C(=O)C(CCC)NC(=O)[C@@H]1C[C@@H](OCC(=O)O)CN1C(=O)C(NC(=O)CC1CCC(C)CC1)C1CCCCC1)C(N)=O` (stereo partly drawn) (X65-[ξChg][Hyp](Carboxymethyl)[X2]G[ξNle]-NH2), the Ki is > 1000 nM.

Regarding `CCCCC(NC(=O)CNC(=O)C(=O)C(CCC)NC(=O)[C@@H]1C[C@@H](OCc2ccccc2)CN1C(=O)C(NC(=O)C1CC1c1ccccc1)C1CCCCC1)C(N)=O` (stereo partly drawn) (X66-[ξChg][Hyp](Bn)[X2]G[ξNle]-NH2), the Ki is > 1000 nM.

Regarding `CCCCC(NC(=O)[C@@H]1C[C@@H](OC(C)(C)C)CN1C(=O)[C@@H](NS(=O)(=O)CCC)C(C)C)C(=O)C(=O)NCC(=O)N[C@H](C(N)=O)c1ccccc1` (stereo partly drawn) (X68-V[Hyp](tBu)[X4]G[Phg]-NH2), the Ki is > 1000 nM.

On to `CCCC(NC(=O)[C@@H]1C[C@@H](OCc2ccccc2)CN1C(=O)C(NC(=O)c1ccc(C(F)(F)F)cc1C(F)(F)F)C1CCCCC1)C(=O)C(=O)NCC(=O)N[C@@H](C(N)=O)c1ccccc1` (stereo partly drawn) (X70-[ξChg][Hyp](Bn)[X2]G[dPhg]-NH2), for which the Ki was > 1000 nM.

Turning to `CCCC(NC(=O)[C@@H]1C[C@@H](OC(C)(C)C)CN1C(=O)[C@@H](NC(=O)c1c(F)c(F)c(C(=O)O)c(F)c1F)C1CCCCC1)C(=O)C(=O)NCC(=O)NC(C(N)=O)c1cccc(Cl)c1` (stereo partly drawn) (X73-[Chg][Hyp](tBu)[X2]G[ξPhg(3-Cl)]-NH2), the Ki lay within 101 to 1000 nM.

`CC(C)CC(NC(=O)[C@@H]1C[C@@H](OC(C)(C)C)CN1C(=O)[C@@H](NC(=O)c1c(F)c(F)c(C(=O)O)c(F)c1F)C1CCCCC1)C(=O)C(=O)NCC(=O)N[C@H](C(N)=O)c1ccccc1` (stereo partly drawn) (X73-[Chg][Hyp](tBu)[ξLeu(ψCOCO)]G[Phg]-NH2): the Ki is > 1000 nM.

With `CCCCC(NC(=O)C(CCCC)NC(=O)CNC(=O)C(=O)C(CCC)NC(=O)[C@@H]1C[C@@H](OCc2ccccc2)CN1C(=O)C(NC(=O)[C@H]1CCCC[C@@H]1C(=O)c1ccccc1)C1CCCCC1)C(N)=O` (stereo partly drawn) (X74-[ξChg][Hyp](Bn)[X2]G[ξNle][ξNle]-NH2), the Ki was in the range of 101 to 1000 nM.
